The supplement of paper PMC3334620
The full ranking holds about 33,000 sequences; the median of “E-score (-0.5 to 0.5)” is about -0.011, and the highest 2% start at about 0.28. The list shows a part of the results.

target: T1, Gcr1 (UniProt P07261); test: PBM E-score (8-mer binding enrichment) (E-score (-0.5 to 0.5)); higher = stronger / more preferred TF binding; most listed sequences are background and not binding sites; details: protein concentration: 100 nM; construct: GST-full length
T1 sequence: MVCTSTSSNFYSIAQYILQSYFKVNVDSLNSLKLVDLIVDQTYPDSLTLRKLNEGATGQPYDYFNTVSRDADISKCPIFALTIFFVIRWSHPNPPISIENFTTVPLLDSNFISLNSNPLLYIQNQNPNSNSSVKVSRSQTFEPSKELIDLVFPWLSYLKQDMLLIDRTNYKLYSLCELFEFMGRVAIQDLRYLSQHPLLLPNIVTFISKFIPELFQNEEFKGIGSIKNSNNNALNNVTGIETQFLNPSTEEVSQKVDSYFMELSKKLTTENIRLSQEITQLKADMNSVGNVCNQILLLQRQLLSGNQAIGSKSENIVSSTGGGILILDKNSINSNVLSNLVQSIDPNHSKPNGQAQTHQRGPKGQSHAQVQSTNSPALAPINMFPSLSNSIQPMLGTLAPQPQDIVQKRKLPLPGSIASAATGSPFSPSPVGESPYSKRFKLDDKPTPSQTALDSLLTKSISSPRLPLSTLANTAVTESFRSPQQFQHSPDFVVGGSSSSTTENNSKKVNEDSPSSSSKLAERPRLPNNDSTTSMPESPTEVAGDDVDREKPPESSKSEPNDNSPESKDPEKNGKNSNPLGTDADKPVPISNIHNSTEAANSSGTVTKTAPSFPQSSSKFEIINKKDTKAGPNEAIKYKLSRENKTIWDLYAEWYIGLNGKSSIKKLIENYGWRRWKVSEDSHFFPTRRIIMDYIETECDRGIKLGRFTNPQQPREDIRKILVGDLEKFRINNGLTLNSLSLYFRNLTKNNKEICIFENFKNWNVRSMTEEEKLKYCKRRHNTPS
How it was run: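 Using PURExpress in vitro transcription/translation, GST-tagged yeast transcription factors were made in full-length or DNA-binding-domain form. These were applied at about 100-200 nM to double-stranded universal all-10-mer Agilent arrays, and bound protein was detected with fluorescent anti-GST. Scans were normalised with masliner before the Universal PBM Analysis Suite assigned E-scores to ungapped eight-base words pooled with their reverse complements.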

Row | Sequence | PBM E-score
1 | CGCCAAGA | 0.017
2 | ATACATGA | 0.189
3 | CAATTCTA | 0.0755
4 | ACCTGCAA | -0.0561
5 | AGCTGTAC | -0.0968
6 | ATTCATGG | -0.00395
7 | GCCGCTAA | 0.188
8 | CATTGAAA | 0.19
9 | CCCATGGA | 0.124
10 | CCGCCTCC | 0.0177
11 | AGCACCAG | 0.156
12 | TAACGAGA | -0.036
13 | GCACCACA | 0.199
14 | TTATTGAA | 0.031
15 | CGGTGGCA | -0.174
16 | AAAACCAT | 0.0712
17 | AGATGTGC | -0.136
18 | CGACCTTA | -0.0457
19 | AAGTTCTA | 0.02
20 | AATAGGTA | 0.189
21 | ATATCTTA | -0.0306
22 | ACACTGGG | -0.205
23 | CAGCTAAC | -0.212
24 | CCGATGTC | -0.0839
25 | TCATCTCA | -0.0801

Row | Sequence | PBM E-score
26 | AACTTACT | -0.278
27 | GGAATGCC | 0.0635
28 | ACGCCAGG | -0.0367
29 | GAGTCACC | -0.0707
30 | CGCTTGTA | -9e-05
31 | CTATTGTA | 0.135
32 | AAAGGGAG | -0.088
33 | ACCTAGGA | -0.101
34 | GCCGGCAA | -0.0541
35 | ACGTCCAG | 0.0487
36 | AGAAGACT | 0.00129
37 | ATAATTTA | 0.184
38 | ATTACGGC | -0.0705
39 | GTTGGAAA | 0.147
40 | GCTCATTA | 0.034
41 | CGTACCCA | 0.128
42 | AGAATCTC | -0.124
43 | TACGTTAA | -0.186
44 | AATACTCT | -0.107
45 | ATCCCTCA | -0.0715
46 | CTAGCCAA | -0.00946
47 | AGTGCGAA | -0.0853
48 | CATTTGCG | -0.0151
49 | AGGCATAT | 0.00107
50 | ATACCTTG | -0.108

Row | Sequence | PBM E-score
51 | AAACAGAG | -0.244
52 | CCGGCCCG | -0.26
53 | GGTATACA | -0.0213
54 | ATAGGAAC | 0.319
55 | ACGATTGA | -0.0106
56 | CCACCCGA | -0.0311
57 | CGACCGTA | -0.309
58 | CAGAGTTA | -0.129
59 | GTGCTATA | -0.0343
60 | CTTCAAGC | -0.00738
61 | GAGCCCTC | -0.25
62 | ACTGCAGG | -0.0183
63 | GGGTTCCA | 0.419
64 | AACGTTCT | 0.0468
65 | ATGCCATA | -0.161
66 | AGAGGGCT | -0.248
67 | CCGTCACC | -0.0694
68 | ACATCAGG | 0.0569
69 | CGGATGTC | 0.0736
70 | ACGGAAGT | -0.0172
71 | ACCAGCAT | 0.0308
72 | AGAATAGA | 0.129
73 | AGGATACT | -0.0705
74 | ACGCATTA | 0.126
75 | ATTTAGGG | 0.196

Row | Sequence | PBM E-score
76 | TAGATCGA | -0.12
77 | GGGAGAAC | -0.213
78 | GATTGCTA | -0.0182
79 | AGCCCTTG | -0.268
80 | AAGGTAAC | 0.106
81 | ACTTGCAA | -0.0778
82 | ATGGGCAA | -0.0035
83 | TGGGCACA | -0.0019
84 | GTGTGAAC | -0.0443
85 | AACCCTGT | -0.0296
86 | ATTGTTTG | -0.00621
87 | TCAGTTCA | -0.0489
88 | AATGGTCA | 0.0991
89 | GCTGAATA | 0.0253
90 | CAATTCTG | 0.135
91 | TGCTAAAA | 0.144
92 | CGCGACCC | -0.104
93 | TCGACAGA | -0.135
94 | GATCGGCA | -0.162
95 | CACTATCC | 0.00039
96 | CCGATGGC | -0.0124
97 | AAAAAAGC | -0.0745
98 | CCGAAGGC | -0.158
99 | AGATGGCC | -0.357
100 | GATAGCGC | 0.0196

Row | Sequence | PBM E-score
101 | ACTACTCG | 0.0127
102 | CGGCGTAC | -0.181
103 | ATAACGCG | -0.00839
104 | AACGCAAA | -0.0691
105 | GCATTAAA | 0.126
106 | AGAAGTGA | -0.153
107 | ATCTTAGC | -0.00256
108 | AACACCAT | -0.058
109 | ACAAAAAT | 0.125
110 | CTCAAGAA | 0.224
111 | CCACTGCC | -0.00453
112 | CTTCTAGC | -0.137
113 | CATGGAAC | 0.0196
114 | GGATGAAA | -0.0204
115 | AATACCTC | 3e-05
116 | CTTCTCTA | 0.0371
117 | AGCAGTTA | -0.076
118 | AGAGTACC | -0.108
119 | ACTAAGGG | 0.035
120 | AAGCCGCC | 0.125
121 | ACGCCGCT | 0.262
122 | CACCGTGA | 0.0121
123 | AAACCTAC | -0.0804
124 | ACCCGCAG | 0.18
125 | AACATATT | 0.0829

Row | Sequence | PBM E-score
126 | GGTCATTA | -0.094
127 | ATGATCAC | -0.00225
128 | TCTTCTAA | 0.329
129 | ACGCAAGC | -0.00602
130 | AGAACCAT | 0.154
131 | GATCTGCA | 0.0851
132 | TAATTTAA | 0.113
133 | CATAGTCC | 0.00228
134 | ATTAACTG | 0.143
135 | GATCGGAA | -0.128
136 | GATAATGC | -0.114
137 | GAATAAGC | -0.114
138 | ACAAAGAA | 0.243
139 | CTGAGGCC | -0.167
140 | TGCTAGAA | -0.0709
141 | GTCTCCTA | 0.155
142 | AACAGCGT | 0.0182
143 | AATCAGCT | 0.0477
144 | CAAACCCC | -0.227
145 | CGTGACGC | -0.123
146 | TCACTCGA | -0.127
147 | CGAGGCAA | -0.0515
148 | CGAATAAA | -0.0149
149 | CACGGGCG | -0.156
150 | CTAGGGTC | 0.00957

Row | Sequence | PBM E-score
151 | CAGACACA | -0.0598
152 | AGTTGCTA | 0.226
153 | AGCCTTGA | -0.273
154 | ATCGGTAA | 0.168
155 | AGGCACAG | -0.175
156 | CAATGTGA | -0.137
157 | GAGCTCAC | -0.135
158 | ATCTACAG | 0.0523
159 | AGACGGGC | -0.18
160 | AAGTCTCT | -0.294
161 | ACAGACAA | 0.0204
162 | CCTACTTA | 0.0587
163 | GCTGGCCA | -0.182
164 | AGCTCGGA | -0.196
165 | CAGGGACA | -0.132
166 | GTATTTCA | -0.00906
167 | CGCACGCA | -0.0673
168 | TATGCGGA | 0.238
169 | ACGGATTC | 0.237
170 | TAGGAAGA | 0.0862
171 | CGTTGTTA | 0.0232
172 | GAGGCGCC | 0.302
